# Results published in PubChem BioAssay AID686970 (National Center for Advancing Translational Sciences (NCATS), 2013).
# Hit rate of the full screen: of about 360,000 compounds, about 6,000 (1.7%) were called active. The inconclusive results got no clear call from the source; some entries with a clear call stand among them for comparison. Calls follow the shape of the dose curve; as a rule, active = well fitted cell-killing curve with a large enough effect; inconclusive = small, poorly fitted or top-dose-only effect, or effect the other way; inactive = flat fitted curve, though single readings scatter. Potencies of inconclusive entries are left out as doubtful fits.
# Experiment: qHTS for induction of synthetic lethality in tumor cells producing 2HG: qHTS for the HT-1080-NT fibrosarcoma cell line;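 also: NT is the 2HG producing partner of a matched IDH1 knockdown line; nearly all actives have a fitted effect of over 55% in size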;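 as to activity, negative = less viability: 0% = DMSO-treated cells and -100% = media-only wells without cells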
# Details: HT-1080-NT fibrosarcoma viability, CellTiter-Glo ATP luminescence, 48 h; activity, negative = less viability: at 46.1 µM (top of the series)
# Procedure, shortened: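 Viability of the 2HG-overproducing fibrosarcoma line after 48 hours of compound exposure at 37 degrees C was determined by luminescence with CellTiter-Glo, and concentration-effect curves were then fitted and categorized.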
# Potency is read from the fitted curve at half-maximal effect; tags tell the direction and shape of the fitted curve.
SMILES,Potency,"activity, negative = less viability"
COC(=O)C1=C(c2ccc(C(C)=O)cc2)C[C@@H]2CC[C@H]1N2C(=O)NCc1ccc(F)cc1,"inconclusive [rising, single point]",–
O=C1NC(=O)N(Cc2ccc(F)cc2)C(=O)/C1=C/c1cccs1,"inconclusive [cytotoxic, single point]",–
COc1ccccc1CCNC(=O)CCC(=O)N1CC2C[C@@H](C1)Cn1c2cccc1=O,–,inactive: 2.86%
C=C1C(=O)O[C@H]2C[C@@H](C)[C@@H]3C=CC(=O)[C@@]3(C)C[C@H]12,"inconclusive [cytotoxic, partial curve]",–
Cc1cccc(N2C(=O)NC(=O)/C(=C\c3cccn3-c3ccc(Cl)cc3)C2=O)c1,"inconclusive [cytotoxic, single point]",–
CCOc1cc2c(cc1OCC)-n1cccc1C(c1ccc(C)cc1C)NC2 (configuration not stated),"inconclusive [cytotoxic, single point]",–
Cc1cccc(CN2CCCC(C(=O)c3cccc(OC(C)C)c3)C2)n1 (configuration not stated),–,inactive: 2.64%
Cc1sc(NC(=O)Cn2c(=O)oc3ccccc32)nc1-c1ccc(Cl)cc1,"inconclusive [cytotoxic, single point]",–
CCOP(=O)(c1ccccc1)c1nc(-c2ccc(F)cc2)oc1N1CCCCC1 (configuration not stated),"inconclusive [cytotoxic, single point]",–
O=C(CCC(=O)N1CCC2(CC1)OCCO2)Nc1nnc(C(F)(F)F)s1,–,inactive: 6.53%
Cc1ccc(-n2c(O)c(C=NCCN3CCNCC3)c(=O)[nH]c2=S)cc1,"inconclusive [rising, full curve]",–
Cn1c(NN=O)nc2ccccc21,"inconclusive [cytotoxic, full curve]",–
OC1CCC(Nc2ccn3nc(-c4cccc(OCc5ccccc5)c4)cc3n2)CC1 (configuration not stated),"inconclusive [cytotoxic, partial curve]",–
CCOC(=O)C1(C)CCCN1C(=O)c1cccs1 (configuration not stated),"inconclusive [rising, partial curve]",–
COc1cccc(C(c2nnnn2Cc2ccccc2)N2CCC3(CC2)C(=O)NCN3c2ccccc2)c1OC (configuration not stated),"inconclusive [cytotoxic, single point]",–
CCCCn1c(NC(=O)c2ccc(Br)o2)c(C(=O)OCC)c2nc3ccccc3nc21,"inconclusive [cytotoxic, single point]",–
Cn1c(N)c(C(=O)COC(=O)Cc2ccccc2)c(=O)n(C)c1=O,–,inactive: 4.28%
N#CC1=C(N)Oc2c(c(=O)sc3ccccc23)C1c1ccncc1 (configuration not stated),"inconclusive [cytotoxic, single point]",–
O=C1C2CCN(CC2)C1Cc1ccccc1O (configuration not stated),"inconclusive [rising, full curve, poor fit]",–
CCC1CN2CCc3cc(OC)c(OC)cc3C2CC1CC1NCCc2c1[nH]c1ccc(O)cc21 (configuration not stated),active: 0.411 µM,–
O=c1[nH]c2ccccc2n1C1CCN(Cc2ccc(-c3nc4ccccc4nc3-c3ccccc3)cc2)CC1,"inconclusive [cytotoxic, partial curve]",–

SMILES,Potency,"activity, negative = less viability"
Cc1ccc(C(O)(c2ccc(C)c(C)c2)C2CN3CCC2CC3)cc1C (configuration not stated),"inconclusive [cytotoxic, single point]",–
COC(=O)C(Cc1ccc(N(CCCl)CCCl)cc1)N=Cc1ccccc1O (configuration not stated),"inconclusive [cytotoxic, single point]",–
COC(=O)C1=C(c2ccc(F)cc2OCc2ccccc2)C[C@@H]2CC[C@H]1N2C(=O)NCc1ccc(F)cc1,–,inactive: -18.2%
Cc1nn(Cc2ccccc2Cl)c(C)c1C(=O)OCC(=O)N1CC(C)OC(C)C1 (configuration not stated),–,inactive: -0.512%
CCOC(=O)c1c(-c2ccc(OC)cc2)oc2ccc(OC(=O)N(C)C)cc12,"inconclusive [cytotoxic, single point]",–
C[C@H](N)CN1CCc2ccc(Br)cc21,–,inactive: -1.91%
CCCCCCCSc1cc(OC)c(CCNC)cc1OC,active: 23.1 µM,–
CCOC(=O)[C@]12Cc3cc4ccccc4cc3[C@H]1N(Cc1ccccc1)C(=O)c1ccccc12,active: 16.4 µM,–
COc1ccc(Nc2nc(NC(C)C)nc3ccsc23)cc1OC,"inconclusive [cytotoxic, single point]",–
O=C1c2ccccc2C2(c3ccc(Cl)cc3)NCCN12 (configuration not stated),–,inactive: -1.53%
O=C(CN1CCCC1=O)NCCc1ccccc1,"inconclusive [rising, single point]",–
C[C@H]1CCC/C=C/C2C[C@H](O)CC2[C@H](O)/C=C/C(=O)O1 (some centres not stated),active: 0.0366 µM,–
C#CCCC[C@@H]1OC(=O)CNC(=O)C([C@@H](C)CC)NC(=O)[C@@H]2CCCN2C(=O)C([C@@H](C)CC)OC(=O)[C@H](Cc2ccccc2)N(C)C(=O)[C@H](C(C)C)NC(=O)C1(C)C (some centres not stated),"inconclusive [cytotoxic, single point]",–
Cc1ccc(Cn2nnnc2CN2CCC(n3nnc4cc(C(F)(F)F)ccc43)CC2)cc1,"inconclusive [cytotoxic, single point]",–
CN(CC(=O)Nc1ccccc1-c1ccccc1)C1CCCCC1,"inconclusive [cytotoxic, single point]",–
C=Cc1cc(OC)c2c(c1)c(=O)oc1c2cc(OC)c2c(O)ccc(C3OC(C)C(O)C(C)(O)C3O)c21 (configuration not stated),active: 9.2 µM,–
O=CNc1ccc(OP(=O)(Oc2ccccc2)Oc2ccccc2)cc1,"inconclusive [cytotoxic, single point]",–
COC(=O)[C@@]12C[C@@H](CC(=O)NCc3cccc(C(F)(F)F)c3)C(=O)N(Cc3ccco3)C1=CCC(C)(C)C2,"inconclusive [cytotoxic, single point]",–
CCCc1c(-c2ccccc2F)ncn1CCc1ccccc1OC,"inconclusive [cytotoxic, single point]",–
Ic1ccccc1CN[C@@H]1C2CCN(CC2)[C@@H]1C(c1ccccc1)c1ccccc1,active: 18.4 µM,–
CC(O)C1C=CC=CC(=O)OC2CC3OC4C5OC5(C)CCC4(COC(=O)C4OC4(C)C(O)CO1)C2(C)C31CO1 (configuration not stated),"inconclusive [cytotoxic, partial curve]",–
